# The campaign covered roughly 360,000 compounds. About 16,000 (4.4%) were called active. Inconclusive means that the source gave no clear call. Such entries were picked first, then a sample of the others. Calls follow the shape of the dose curve; as a rule, active = well fitted inhibition curve with a large enough effect; inconclusive = small, poorly fitted or top-dose-only effect; inactive = no such curve, though single readings can be large or run the other way. Potencies beside an inconclusive call are fits to weak or partial responses and may not hold up.
# Target: Bromodomain adjacent to zinc finger domain protein 2B (Homo sapiens) (UniProt Q9UIF8)
# Experiment: qHTS Assay for Inhibitors of BAZ2B; also: nearly all actives have a fitted effect of over 60% in size
# Details: AlphaScreen BAZ2B-H3K14Ac peptide displacement; series mostly up to 114 µM
# Method in brief: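 AlphaScreen displacement of biotin-H3(5-23)K14Ac peptide (50 nM final) from BAZ2B (50 nM final) in PBS pH 7.4, 0.01% Tween-20; complex preformed 30 min RT, then compounds (top 110 uM) 30 min RT, beads 20 min dark.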
# Potency is read from the fitted curve at half-maximal effect; tags tell the direction and shape of the fitted curve.
# Chain of UniProt Q9UIF8 (Q9UIF8 whole entry, looked up, the tested form may be a part): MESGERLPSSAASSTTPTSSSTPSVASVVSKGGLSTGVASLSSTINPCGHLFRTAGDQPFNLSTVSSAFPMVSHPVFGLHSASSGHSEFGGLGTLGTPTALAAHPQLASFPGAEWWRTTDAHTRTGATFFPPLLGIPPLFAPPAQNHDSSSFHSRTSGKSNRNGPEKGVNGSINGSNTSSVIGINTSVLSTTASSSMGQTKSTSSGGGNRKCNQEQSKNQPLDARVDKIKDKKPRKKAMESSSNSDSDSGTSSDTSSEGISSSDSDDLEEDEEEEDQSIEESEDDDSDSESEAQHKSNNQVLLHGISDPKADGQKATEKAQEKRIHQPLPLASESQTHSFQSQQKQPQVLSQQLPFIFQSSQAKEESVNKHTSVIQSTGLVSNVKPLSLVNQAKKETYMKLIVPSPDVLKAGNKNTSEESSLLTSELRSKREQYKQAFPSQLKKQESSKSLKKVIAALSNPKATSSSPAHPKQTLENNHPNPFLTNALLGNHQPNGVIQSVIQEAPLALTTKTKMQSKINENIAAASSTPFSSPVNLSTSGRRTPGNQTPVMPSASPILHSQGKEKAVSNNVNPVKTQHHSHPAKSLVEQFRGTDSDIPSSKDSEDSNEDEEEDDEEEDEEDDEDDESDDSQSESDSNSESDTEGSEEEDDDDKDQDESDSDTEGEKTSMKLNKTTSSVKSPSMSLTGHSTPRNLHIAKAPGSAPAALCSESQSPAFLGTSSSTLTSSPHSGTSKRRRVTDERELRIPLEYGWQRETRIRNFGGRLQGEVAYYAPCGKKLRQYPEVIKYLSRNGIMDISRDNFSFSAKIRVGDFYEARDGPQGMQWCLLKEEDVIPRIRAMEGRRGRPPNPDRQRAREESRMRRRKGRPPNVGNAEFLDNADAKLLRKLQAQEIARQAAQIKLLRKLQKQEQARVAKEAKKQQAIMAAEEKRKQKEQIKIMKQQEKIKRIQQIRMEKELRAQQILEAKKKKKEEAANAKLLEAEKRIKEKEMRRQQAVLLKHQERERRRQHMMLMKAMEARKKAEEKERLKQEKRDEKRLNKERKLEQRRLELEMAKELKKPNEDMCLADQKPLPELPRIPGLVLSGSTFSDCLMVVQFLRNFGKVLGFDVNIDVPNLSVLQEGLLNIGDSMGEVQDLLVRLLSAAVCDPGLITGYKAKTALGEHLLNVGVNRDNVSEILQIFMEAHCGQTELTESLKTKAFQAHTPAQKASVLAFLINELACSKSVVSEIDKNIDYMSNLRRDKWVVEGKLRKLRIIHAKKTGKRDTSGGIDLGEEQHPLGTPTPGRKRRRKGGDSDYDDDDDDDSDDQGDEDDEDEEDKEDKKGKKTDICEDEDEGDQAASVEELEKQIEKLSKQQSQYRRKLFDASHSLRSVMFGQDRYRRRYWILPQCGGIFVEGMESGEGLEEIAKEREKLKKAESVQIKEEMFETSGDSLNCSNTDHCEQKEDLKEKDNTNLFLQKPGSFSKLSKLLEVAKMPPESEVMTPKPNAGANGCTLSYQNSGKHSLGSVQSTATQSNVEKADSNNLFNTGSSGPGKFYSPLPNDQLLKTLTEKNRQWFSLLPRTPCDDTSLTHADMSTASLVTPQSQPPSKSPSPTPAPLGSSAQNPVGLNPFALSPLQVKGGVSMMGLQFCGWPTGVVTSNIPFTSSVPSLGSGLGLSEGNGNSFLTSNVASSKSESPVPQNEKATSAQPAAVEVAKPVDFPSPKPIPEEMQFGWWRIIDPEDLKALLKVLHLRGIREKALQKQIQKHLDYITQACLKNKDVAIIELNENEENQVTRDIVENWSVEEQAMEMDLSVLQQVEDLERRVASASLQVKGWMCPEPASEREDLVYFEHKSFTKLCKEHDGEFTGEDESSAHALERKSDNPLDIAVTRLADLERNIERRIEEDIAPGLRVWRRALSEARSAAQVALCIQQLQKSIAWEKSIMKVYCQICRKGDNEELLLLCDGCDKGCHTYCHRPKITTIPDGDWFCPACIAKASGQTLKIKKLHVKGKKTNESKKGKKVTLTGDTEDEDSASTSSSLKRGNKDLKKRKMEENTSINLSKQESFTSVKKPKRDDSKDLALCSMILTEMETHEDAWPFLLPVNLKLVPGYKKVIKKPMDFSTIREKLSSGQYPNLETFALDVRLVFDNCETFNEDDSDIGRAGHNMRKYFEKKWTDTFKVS
row,Compound,Potency
1,CCCOc1cccc(C2c3c(-c4ccccc4O)n[nH]c3C(=O)N2Cc2ccco2)c1 (stereo not drawn),"inconclusive: 28.2 µM [inhibitor, full curve, poor fit]"
2,CC(C)CCn1c(Oc2ccccc2F)nc2c1c(=O)n(C)c(=O)n2C,"inconclusive: 44.7 µM [inhibitor, partial curve]"
3,Cc1ccc(C(=O)N/C(=C\c2ccc(Br)cc2)c2nc(=S)[nH][nH]2)cc1,"inconclusive: 25.1 µM [inhibitor, full curve, poor fit]"
4,COc1cccc(/C=N/n2c(COc3ccccc3)n[nH]c2=S)c1,"inconclusive: 44.7 µM [inhibitor, partial curve]"
5,CC(=O)c1ccc(NC(=O)CSc2cn(CC(=O)N(C(C)C)C(C)C)c3ccccc23)cc1,"inconclusive: 70.8 µM [inhibitor, single point]"
6,O=C(Cn1cnc2cc([N+](=O)[O-])ccc2c1=O)NC1CCS(=O)(=O)C1 (stereo not drawn),"inconclusive: 79.4 µM [inhibitor, single point]"
7,Cc1c(C(=O)O)sc(S(=O)(=O)N2CCN(C(=O)Cc3ccc(F)cc3)CC2)c1C(=O)O,inactive
8,COc1ccc(CNC(=O)CCCn2nc(C)c3c(C)n(-c4ccc(C)cc4)nc3c2=O)cc1,"inconclusive: 89.1 µM [inhibitor, single point]"
9,CC(C)n1ncc(N2CCOCC2)c(Cl)c1=O,inactive
10,O=C(Nc1ccccc1C(=O)N1CCN(c2cccc(Cl)c2)CC1)C1=CSCCO1,active: 70.8 µM
11,Cc1ccccc1OCc1nc2ccccc2n1Cc1ccccc1Cl,inactive
12,Oc1c(Cl)cc(CN2CCCCC2)c2cccnc12,active: 3.55 µM
13,CCN(CC)CCCn1c(=S)[nH]c2cc(OC)c(OC)cc2c1=O,inactive
14,CN1C(=O)c2oc3ccccc3c(=O)c2C1c1ccccn1 (stereo not drawn),"inconclusive: 89.1 µM [inhibitor, single point]"
15,COC(=O)c1c(NC(=O)/C=C/c2ccco2)sc2c1CCC2,"inconclusive: 70.8 µM [inhibitor, single point]"
16,CC1CN(c2ncnc3c2oc2ccccc23)CC(C)O1 (stereo not drawn),"inconclusive: 79.4 µM [inhibitor, partial curve]"
17,Cn1c(=O)c(=O)n(C)c2cc(C(=O)NCc3ccccc3Cl)ccc21,inactive
18,O=C(O)c1oc2ccccc2c1CSc1ccccn1,"inconclusive: 89.1 µM [inhibitor, single point]"
19,COc1ccc(-c2csc(NC(=O)CSCc3c(C)noc3C)n2)cc1OC,"inconclusive: 56.2 µM [inhibitor, partial curve]"
20,Cc1c(O)ccc2c(CC(=O)N[C@@H](Cc3ccc(O)cc3)C(=O)O)cc(=O)oc12,inactive
21,COC(=O)c1scc(-c2ccc(C)cc2)c1S(=O)(=O)N1CCN(c2ccc(C)cc2C)CC1,inactive
22,NS(=O)(=O)c1ccc(CNC(=O)c2ccccn2)cc1,active: 79.4 µM
23,CCSC1=N/C(=C\c2cccc(F)c2)C(=O)S1,inactive
24,CCN(CC)c1ccc(NC(=O)c2ccccc2OCC(=O)OC)cc1,active: 31.6 µM
25,Fc1ccc(C2c3[nH]c4ccccc4c3CCN2Cc2ccoc2)cc1 (stereo not drawn),"inconclusive: 44.7 µM [inhibitor, partial curve]"

row,Compound,Potency
1,COc1ccc(OCCCC(=O)OCC(=O)Nc2ncc(Cl)cc2Cl)cc1,"inconclusive: 50.1 µM [inhibitor, partial curve]"
2,O=C(/C=C/c1ccco1)Nc1nc(-c2ccccn2)cs1,active: 28.2 µM
3,COc1ccc(NS(=O)(=O)c2ccc(-c3cnc(C4CC4)o3)cc2)cc1Cl,inactive
4,Cc1nnc(C)n1/N=C/c1cccn1C,inactive
5,Cc1ccc(O)c(C2=NNC(c3ccc(Cl)cc3)C2)c1 (stereo not drawn),"inconclusive: 70.8 µM [inhibitor, single point]"
6,CCOC(=O)/C(=N\Nc1cccc(C(F)(F)F)c1)N1CCOCC1,"inconclusive: 56.2 µM [inhibitor, partial curve]"
7,Cn1c(N)c(C(=O)COC(=O)COc2ccccc2C#N)c(=O)n(C)c1=O,inactive
8,O=C(NC(=S)Nc1ccc(CN2CCOCC2)cc1)c1ccccc1[N+](=O)[O-],inactive
9,Cc1ccoc1C(=O)NCCNC(=O)c1occc1C,inactive
10,CCCNC(=O)CCCN1C(=O)CCn2nc(-c3cccn3C)cc21,"inconclusive: 79.4 µM [inhibitor, single point]"
11,CCOP(=O)(/C(C#N)=C(/O)c1ccccc1)c1ccccc1 (stereo not drawn),"inconclusive: 89.1 µM [inhibitor, single point]"
12,COc1ccc(C2c3ccc4ccccc4c3Oc3ncn(CCCO)c(=N)c32)cc1 (stereo not drawn),active: 70.8 µM
13,CCOC(=O)c1ccc(NC(=O)C(C)Sc2nc(=O)cc(N)n2CCc2ccccc2)cc1 (stereo not drawn),"inconclusive: 89.1 µM [inhibitor, single point]"
14,O=C(COC(=O)c1ccc(NS(=O)(=O)c2cccs2)cc1)NCC1CCCO1 (stereo not drawn),inactive
15,COc1ccc(OCC(=O)N(Cc2sccc2C)C2CCS(=O)(=O)C2)cc1 (stereo not drawn),"inconclusive: 39.8 µM [inhibitor, single point]"
16,Cc1cccc(C)c1OCc1nnc(SCC(=O)Nc2ccc(N3CCOCC3)cc2)o1,inactive
17,Cc1onc(-c2ccccc2)c1C(=O)N/N=C/c1c[nH]c2ccccc12,"inconclusive: 100 µM [inhibitor, single point]"
18,CCOC(=O)c1[nH]cnc1C(=O)Nc1ccccn1,active: 79.4 µM
19,O=S(=O)(Cc1ccccc1)Nc1cccc(Br)c1,"inconclusive: 89.1 µM [inhibitor, single point]"
20,O=C(Nc1ccc2c(c1)OCO2)C1CC(=O)N(CCc2ccccc2)C1 (stereo not drawn),"inconclusive: 79.4 µM [inhibitor, partial curve]"
21,COc1ccc(C2=CC(=O)C=CC2=O)cc1,active: 10 µM
22,O=S(=O)(c1ccccc1)c1nc(-c2ccccc2)oc1N1CCCCC1,"inconclusive: 89.1 µM [inhibitor, single point]"
23,COc1ccccc1Nc1c2c(nc3ccc(NC(=O)c4ccccc4F)cc13)CCCC2,"inconclusive: 22.4 µM [inhibitor, full curve]"
24,C/C(=N\NC(=S)NCc1ccccc1)c1ccc2c(c1)OCCO2,"inconclusive: 22.4 µM [inhibitor, full curve]"
25,Cc1cc2cc(CNC(=O)c3ccco3)ccc2n1C,"inconclusive: 50.1 µM [inhibitor, partial curve]"

row,Compound,Potency
1,Cc1ccc(-n2[nH]c(C)c(C=Nc3ccc(S(=O)(=O)Nc4nc(C)cc(C)n4)cc3)c2=O)c(C)c1,inactive
2,CC1CCN(c2ccc(-c3ccc(NC(=O)C(F)(F)F)cc3)nn2)CC1,"inconclusive: 89.1 µM [inhibitor, single point]"
3,NS(=O)(=O)c1ccc(NC(=O)C2Cc3ccccc3CN2C(=O)c2ccco2)cc1 (stereo not drawn),active: 50.1 µM
4,Cc1ccc(C)c(N2CCN(CCCNC(=O)c3cnn(-c4ccccc4)c3C3CCN(C(=O)OC(C)(C)C)CC3)CC2)c1,"inconclusive: 35.5 µM [inhibitor, single point]"
5,Cc1cc2c(cc1NC(=O)c1ccccc1Cl)n(C)c(=O)c(=O)n2C,inactive
6,O=C(COC(=O)CCc1nc2ccccc2c(=O)[nH]1)Nc1ccc2c(c1)OCO2,inactive
7,NC(CSC12CC3CC(CC(C3)C1)C2)C(=O)O (stereo not drawn),"inconclusive: 89.1 µM [inhibitor, single point]"
8,Cn1c(=O)cc(SCC(=O)N2CCCC2)c2cc(Cl)ccc21,"inconclusive: 11.2 µM [inhibitor, partial curve, poor fit]"
9,ON=Cc1cccn1-c1ccccc1,active: 50.1 µM
10,O=C(NCc1ccccc1Cl)c1c2c(nc3ccccc13)C(=O)N(C1CCCCC1)C2,"inconclusive: 89.1 µM [inhibitor, single point]"
11,COc1ccc(-c2nnc(NC(=O)C(C)C)o2)cc1,"inconclusive: 79.4 µM [inhibitor, single point]"
12,COc1cccc(NC(=O)CN(C)C(=O)Cc2ccc3c(c2)OCCO3)c1,"inconclusive: 100 µM [inhibitor, single point]"
13,CCN(CCO)c1ccc(NC(=S)Nc2cccc(S(=O)(=O)N(C)C)c2)cc1,"inconclusive: 50.1 µM [inhibitor, partial curve]"
14,Cc1ccc(SCCC(=O)OCC(=O)Nc2ncc(Cl)cc2Cl)cc1,"inconclusive: 89.1 µM [inhibitor, single point]"
15,Fc1ccccc1COc1ccc(Br)cc1CNCC1CCCO1 (stereo not drawn),"inconclusive: 89.1 µM [inhibitor, single point]"
16,Cc1cc(N)n(-c2ccc(C(=O)O)cc2)n1,"inconclusive: 79.4 µM [inhibitor, partial curve]"
17,O=S(=O)(Cc1ccccc1Cl)N1CCCC1,"inconclusive: 1 µM [inhibitor, full curve, poor fit]"
18,COC(=O)c1ccc(C2C(C(=O)c3ccco3)=C(O)C(=O)N2CC2CCCO2)cc1 (stereo not drawn),inactive
19,COC(=O)C1=C(C)N(Cc2cccnc2)C(=O)/C1=C\c1sccc1C,active: 35.5 µM
20,COc1ccc(O[C@H]2C=C[C@@H](c3ccccc3)O[C@@H]2COC(=O)CC/C(C)=N/O[C@H](C)c2cn([C@@H]3COC[C@H]3O)nn2)cc1,"inconclusive: 44.7 µM [inhibitor, partial curve]"
21,O=C1CS(=O)(=O)C2(C(=O)N(Cc3ccccc3)c3ccccc32)N1c1ccc(F)c(Cl)c1 (stereo not drawn),inactive
22,COc1ccc(/C=C2\Cc3ccccc3C2=O)cc1OC,"inconclusive: 89.1 µM [inhibitor, single point]"
23,Cc1ccc2nc(-c3cccc(S(=O)(=O)N(C)C)c3)cn2c1,inactive
